In paper PMC8414166:

Key:
[1] = fixed-cell ELISA, anti-HA, non-permeabilized cells; settings: glycan lost; control: wild-type 2HA-PKR2
[2] = anti-HA immunofluorescence, non-permeabilized CHO cells; settings: glycan lost; control: wild-type 2HA-PKR2
[3] = fixed-cell ELISA, anti-HA, permeabilized cells; settings: glycan lost; control: wild-type 2HA-PKR2
[4] = surface cell ELISA and immunofluorescence with MRAP2 co-expression; settings: glycan lost; control: wild-type 2HA-PKR2 with MRAP2

B1: PKR2: N7Q (protein)
parent chain: MAAQNGNTSFTPNFNPPQDHASSLSFNFSYGDYDLPMDEDEDMTKTRTFFAAKIVIGIALAGIMLVCGIGNFVFIAALTRYKKLRNLTNLLIANLAISDFLVAIICCPFEMDYYVVRQLSWEHGHVLCASVNYLRTVSLYVSTNALLAIAIDRYLAIVHPLKPRMNYQTASFLIALVWMVSILIAIPSAYFATETVLFIVKSQEKIFCGQIWPVDQQLYYKSYFLFIFGVEFVGPVVTMTLCYARISRELWFKAVPGFQTEQIRKRLRCRRKTVLVLMCILTAYVLCWAPFYGFTIVRDFFPTVFVKEKHYLTAFYVVECIAMSNSMINTVCFVTVKNNTMKYFKKMMLLHWRPSQRGSKSSADLDLRTNGVPTTEEVDCIRLK
localisation_or_trafficking, percent_of_wt [1]: decreases
localisation_or_trafficking [2]: no change
expression_or_secretion, percent_of_wt [3]: decreases
other: MRAP2-mediated inhibition of surface trafficking [4]: no change

B2: PKR2: N27Q (protein)
parent chain: B1 parent chain
localisation_or_trafficking, percent_of_wt [1]: decreases
localisation_or_trafficking [2]: abolishes
expression_or_secretion, percent_of_wt [3]: decreases, expression of PKR2-N27Q and PKR2-N7/27Q were about half of the unmodified receptor

B3: PKR2: N7/27Q (protein)
parent chain: B1 parent chain
localisation_or_trafficking, percent_of_wt [1]: decreases
localisation_or_trafficking [2]: abolishes
expression_or_secretion, percent_of_wt [3]: decreases
